In article PMC4336329 (PLoS ONE, 2015):
In all, about 310,000 compounds went through this assay and about 14,000 (4.5%) showed an effect of 50% or more. Effects have a minus sign here. Some of the results follow.

Target: human ether-à-go-go-related gene (hERG) potassium channel (human, UniProt Q12809)
Assay: primary screen, population patch clamp on CHO cells stably expressing hERG
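Also: peak tail current of the secondary pulse compared with the same well before compound.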

human ether-à-go-go-related gene (hERG) potassium channel, sequence (Q12809 whole entry, looked up): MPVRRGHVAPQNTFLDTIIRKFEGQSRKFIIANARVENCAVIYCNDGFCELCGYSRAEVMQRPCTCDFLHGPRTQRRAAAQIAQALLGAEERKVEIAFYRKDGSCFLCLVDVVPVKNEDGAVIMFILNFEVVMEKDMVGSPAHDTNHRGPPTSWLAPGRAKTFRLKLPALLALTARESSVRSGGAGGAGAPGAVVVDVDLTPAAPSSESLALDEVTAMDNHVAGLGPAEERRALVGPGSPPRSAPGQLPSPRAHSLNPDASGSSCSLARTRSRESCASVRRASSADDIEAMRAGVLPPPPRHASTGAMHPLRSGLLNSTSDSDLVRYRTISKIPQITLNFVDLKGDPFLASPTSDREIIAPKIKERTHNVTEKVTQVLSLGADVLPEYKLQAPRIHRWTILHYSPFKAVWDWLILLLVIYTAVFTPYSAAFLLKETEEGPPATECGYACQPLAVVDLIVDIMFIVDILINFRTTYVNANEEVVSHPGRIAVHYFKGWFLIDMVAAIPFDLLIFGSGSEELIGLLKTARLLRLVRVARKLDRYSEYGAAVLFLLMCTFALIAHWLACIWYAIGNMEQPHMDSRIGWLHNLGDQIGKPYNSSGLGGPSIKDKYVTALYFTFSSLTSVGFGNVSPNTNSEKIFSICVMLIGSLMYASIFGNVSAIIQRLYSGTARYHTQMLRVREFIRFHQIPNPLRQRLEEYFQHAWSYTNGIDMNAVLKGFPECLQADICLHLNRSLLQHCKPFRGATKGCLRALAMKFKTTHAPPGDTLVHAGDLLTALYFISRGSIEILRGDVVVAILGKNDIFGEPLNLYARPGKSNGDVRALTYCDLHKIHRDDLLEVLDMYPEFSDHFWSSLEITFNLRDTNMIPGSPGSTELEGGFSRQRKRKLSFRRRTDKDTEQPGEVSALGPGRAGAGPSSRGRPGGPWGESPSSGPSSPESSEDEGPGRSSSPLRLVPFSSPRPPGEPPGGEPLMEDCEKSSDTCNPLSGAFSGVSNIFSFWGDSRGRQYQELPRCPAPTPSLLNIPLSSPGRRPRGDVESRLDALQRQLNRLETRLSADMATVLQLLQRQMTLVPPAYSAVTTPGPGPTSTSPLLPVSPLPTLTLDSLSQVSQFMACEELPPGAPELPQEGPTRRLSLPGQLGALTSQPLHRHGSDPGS

SMILES	hERG current change (%, negative = inhibition) at 10uM [%]
Brc1ccc(-c2nc(-c3ccccc3)no2)o1	16.7
COC(=O)c1ccc(CN2CCN(Cc3ccccc3)C(CCO)C2)cc1 (centres unmarked)	-16.5
O=C(CSc1nnc(-c2ccccc2Cl)n1Cc1ccco1)Nc1ccc2c(c1)OCCO2	-8.43
CCn1cc(C(=O)NCCOC)c(=O)c2ccc(C)nc21	8.9
CC(=O)n1nc(-c2ccco2)nc1SCc1ccccc1	0.418
CC(=O)Nc1ccc(Nc2cc(C)nc3c(-c4ccccc4)cnn23)cc1	11.1
C=CCOc1cccc(C2C(C(=O)c3ccco3)=C(O)C(=O)N2CCN(CC)CC)c1 (centres unmarked)	2.38
CC(C)CNC(=O)Cn1nc(C(F)(F)F)c2c1CCCC2	7.47
CC(C)(C)c1ccc(C(=O)Nc2ccc3c(c2)C(=O)NC3=O)cc1	25.6
O=C(Cn1c(=O)oc2cc(S(=O)(=O)NCc3ccccc3)ccc21)NCc1ccco1	-1.18
CCOC(=O)c1cnc2ccccc2c1NCCO	-34.8
COc1cc([C@@H]2CC=C(C(=O)O)[C@H](c3ccccc3)N2S(=O)(=O)c2ccc(C)cc2)cc(OC)c1OC	29.7
COc1cc2cc(CN(Cc3ccc4c(c3)OCO4)C(=O)c3ccco3)c(=O)[nH]c2cc1OC	-7.93
O=C(Nc1ccc(NC(=O)c2sc3ccccc3c2Cl)cc1Cl)c1ccco1	0.689
CCn1c(SCC(N)=O)nnc1C(C)C	14.7
Cc1ccccc1N(CC(=O)N/N=C/c1cc(Br)c(C)o1)S(C)(=O)=O	-0.797
CC(=O)N1CCOc2ccc(S(=O)(=O)NCCc3ccc(Cl)cc3)cc21	-12.3
COc1ccc(-c2nc(SC(C)C(=O)Nc3ccc(NC(C)=O)cc3)n[nH]2)cc1 (centres unmarked)	10.4
CC1CCCC(C)N1C(=O)COC(=O)c1cc(S(=O)(=O)N2CCOCC2)ccc1Cl (centres unmarked)	-23.3
CCOc1cc(C(=O)Nc2cc3c(cc2N2CCCC2)n(C)c(=O)n3C)cc(OCC)c1OCC	-1.12
CC(C)(C)NC(=O)CCN(/N=C/c1ccccc1F)C1=NS(=O)(=O)c2ccccc21	15.7
OCCC1CN(Cc2nc3ccccc3s2)CCN1C1CCCC1 (centres unmarked)	-48.9

SMILES	hERG current change (%, negative = inhibition) at 10uM [%]
N=c1c2c(-c3ccccc3)c(-c3ccccc3)oc2ncn1CCCN1CCOCC1	-79.2
COc1ccccc1C/C(N)=N/OC(=O)COc1cc(C)cc(C)c1C	0.985
CC(C)(C)N(Cc1ccccc1)C(=O)CSc1ncn[nH]1	11.2
Cc1cnc(CNC(=O)CC2C(=O)NCCN2Cc2ccccc2C(F)(F)F)cn1 (centres unmarked)	16.8
O=C(CSc1nc2ccccc2n1Cc1ccc(Cl)cc1)N/N=C/c1ccc(C(=O)O)cc1	17
CC(=O)Nc1ccc(C(=O)Cn2nnc3ccccc3c2=O)cc1	6.68
C=C(C)COc1ccc2oc(C)c(C(=O)OCCOC)c2c1	16
Cc1cc(C(=O)COc2ncnc3sccc23)c(C)n1C1CC1	11.1
COc1ccc(CCNCc2ccc(Br)cc2)cc1OC.O=C(O)C(=O)O	-62.9
COc1ccccc1C(=O)N1CCN(c2nc3cc(C)c(C)cc3cc2C#N)CC1	-2.28
O=C(CSc1cccc[n+]1[O-])NCC1CCCCC1	62
Cc1cccc(Nc2ncc3c(n2)CC(C)CC3=O)c1 (centres unmarked)	2.03
CN(C)Cc1c(O)ccc2c(=O)c(-c3ccc(Cl)cc3)coc12	-9.92
CCC(=O)N1CCN(c2cc(NCC3CCCO3)c(F)cc2[N+](=O)[O-])CC1 (centres unmarked)	-6.4
O=c1ccc(-c2ccc(S(=O)(=O)Nc3cccc(Br)c3)o2)n[nH]1	14.8
CCOC(=O)C1CCN(C(=O)CN2C(=O)CSc3ccc(S(=O)(=O)N4CCOCC4)cc32)CC1	-22.6
Cc1ccc(CNc2nc3ccccc3n2C)o1	-12.4
CCCCCCn1c(CN2CCN(C)CC2)nc2c1c(=O)n(C)c(=O)n2C	-80.9
O=C(COc1ccc(/C=N/NS(=O)(=O)c2ccccc2)cc1)N1CCOCC1	7.05
COC(=O)C[n+]1cccc2ccccc21.[Cl-]	32.5
CC1CCc2c(sc(NS(=O)(=O)c3ccccc3)c2C(=O)OC(C)C)C1 (centres unmarked)	8.18
CN(C)c1ccc(NC(=O)c2cccc([N+](=O)[O-])c2)c2ccccc12	-4.86

SMILES	hERG current change (%, negative = inhibition) at 10uM [%]
Cc1ccc(C2(c3noc(CN4CCC(C(=O)N5CCOCC5)CC4)n3)CCCC2)cc1	-4.64
O=C(CSc1ccc(-c2ccco2)nn1)N1CCCCCC1	4.12
COc1ccc(NC(=O)Cn2cnc3c(cnn3-c3ccc(C)c(C)c3)c2=O)c(OC)c1	-6.81
NC(=O)C(=O)NN=C1CCC(c2ccccc2)CC1 (centres unmarked)	20.3
CCC(=O)N1CCc2cc(S(=O)(=O)CCC(=O)N3CCN(c4ccc(F)cc4)CC3)ccc21	-2.82
COC(=O)CCC(=O)NC1CC(C)(C)Cc2c1cnn2-c1ccc(F)cc1 (centres unmarked)	4.42
CC1CCCC(C)N1CCNC(=O)CCc1nnc2n(Cc3ccccc3)c(=O)c3ccccc3n12 (centres unmarked)	-42.6
CCc1nc2ccc(C(=O)NCCc3ccco3)cc2nc1CC	-2.52
Cc1ccc(P(=O)(CC(=O)O)c2ccc(C)cc2)cc1	-8.65
COc1ccc(-c2ccc(SCC(=O)NCC3CCCO3)nn2)cc1OC (centres unmarked)	22.2
C/C(=N\NC(=O)C(C)Oc1ccc([N+](=O)[O-])cc1)c1ccccn1 (centres unmarked)	-29.4
Cc1ccc(C)c(OCc2cc(C(=O)N3CC[C@H](O)C3)no2)c1	19.8
COc1ccc(NC(=O)[C@@H]2CCCN2C(=O)[C@@H]2Cc3ccccc3CN2C(=O)OC(C)(C)C)cc1	14.8
NC(=O)c1cccnc1	18.8
COc1ccc(Cl)cc1N(C(C)C(=O)O)S(C)(=O)=O (centres unmarked)	8.27
COc1cc(F)cc(C2=CC(=O)C[C@H](c3ccc(F)cc3)C2)c1	2.82
COc1ccc(NC(=O)CN2CCC(C(=O)c3ccc(C)cc3)CC2)c(OC)c1	-29.8
CN(C)CCCNC(=O)/C=C/c1ccc(OCc2c(F)cccc2Cl)cc1	-67
COc1ccc(S(=O)(=O)N(Cc2ccccc2)Cc2nc(-c3ccccc3)no2)cc1	-16.9
CCc1noc(C)c1C(=O)N1CCCC(C(=O)c2ccc(OC)c(F)c2)C1 (centres unmarked)	-24.9
O=C(Nc1nccs1)c1ccc(S(=O)(=O)NCc2cccs2)cc1	-6.5
O=C(CNC(=O)c1cccc(Cl)c1)N/N=C/c1cccnc1	14.9

SMILES	hERG current change (%, negative = inhibition) at 10uM [%]
CCC(C)(C)NC(=O)c1ccc2c(c1)N(CC(=O)OC)C(=O)C(C)(C)O2	-1.23
Cn1cccc1/C=C1\CCC/C(=C\c2cccn2C)C1=O	-2.96
O=C(Nc1ccc(Cl)cc1C(=O)Nc1ccncc1)c1ccco1	-26.1
O=C(CCNc1n[nH]c(=O)[nH]c1=O)N/N=C\c1ccc(Br)cc1	-3.55
Cc1nc(CN(C)C(=O)CC2C(=O)NCCN2Cc2ccc(F)cc2)cs1 (centres unmarked)	13.3
CC(C)Cc1nnc(NC(=O)C2CCN(C(=O)c3ccc(F)cc3)CC2)s1	-17.5
O=C(C1=C(O)C(=O)N(CCN2CCOCC2)C1c1ccccn1)c1cccs1 (centres unmarked)	7.34
CC(C)CC(c1nnnn1C(C)C)N1CCN(c2cccc(Cl)c2)CC1 (centres unmarked)	0.685
CCOC(=O)CC(=O)Nc1ccc(C)cc1	-1.65
O=C(Nc1cccc([N+](=O)[O-])c1)c1cc(S(=O)(=O)Nc2ccccn2)ccc1Cl	-15
O=C(CN1CCN(c2ccccc2F)CC1)N1N=CCC1c1ccccc1 (centres unmarked)	-5.83
Cn1c(=O)c2c(nc(NCCNC(=O)c3ccco3)n2Cc2ccccc2)n(C)c1=O	1.73
COc1ccc(S(=O)(=O)N2CCOCC2)cc1NC(=O)c1cccs1	-7.06
COCCn1c(SC(C(=O)Nc2cc(C)ccc2OC)c2ccccc2)nnc1-c1ccc(Cl)cc1 (centres unmarked)	-41.3
C#CC[N+]1(CC#Cc2ccccc2)CCOCC1.[I-]	3.54
CC(C)=NOC(=O)c1ccc(-c2ccccc2)cc1	2.26
O=C(NCc1ccccc1)/C(=N\O)c1ccccc1	-7.47
Cc1ccc(OCc2cc(C(=O)NC(C)Cc3cccc(C)n3)no2)cn1 (centres unmarked)	17.8
CCN(CC)S(=O)(=O)c1cc(NC(=O)CSc2nc3c(cc2C#N)C(=O)CC(C)(C)C3)ccc1C	4.51
O=C(NCCN1C(=O)S/C(=C\c2ccccc2Cl)C1=O)C1=COCCO1	-5.53
